What all share (experiment): two-hybrid; targeted yeast two-hybrid, GAL4 binding domain and activation domain fusions (Clontech Matchmaker system); interaction read as growth on -Leu, -Trp, -His, -Ade plates
One assay concerns the target T1, Cul4 (S. pombe) (UniProt O14122).
T1 sequence: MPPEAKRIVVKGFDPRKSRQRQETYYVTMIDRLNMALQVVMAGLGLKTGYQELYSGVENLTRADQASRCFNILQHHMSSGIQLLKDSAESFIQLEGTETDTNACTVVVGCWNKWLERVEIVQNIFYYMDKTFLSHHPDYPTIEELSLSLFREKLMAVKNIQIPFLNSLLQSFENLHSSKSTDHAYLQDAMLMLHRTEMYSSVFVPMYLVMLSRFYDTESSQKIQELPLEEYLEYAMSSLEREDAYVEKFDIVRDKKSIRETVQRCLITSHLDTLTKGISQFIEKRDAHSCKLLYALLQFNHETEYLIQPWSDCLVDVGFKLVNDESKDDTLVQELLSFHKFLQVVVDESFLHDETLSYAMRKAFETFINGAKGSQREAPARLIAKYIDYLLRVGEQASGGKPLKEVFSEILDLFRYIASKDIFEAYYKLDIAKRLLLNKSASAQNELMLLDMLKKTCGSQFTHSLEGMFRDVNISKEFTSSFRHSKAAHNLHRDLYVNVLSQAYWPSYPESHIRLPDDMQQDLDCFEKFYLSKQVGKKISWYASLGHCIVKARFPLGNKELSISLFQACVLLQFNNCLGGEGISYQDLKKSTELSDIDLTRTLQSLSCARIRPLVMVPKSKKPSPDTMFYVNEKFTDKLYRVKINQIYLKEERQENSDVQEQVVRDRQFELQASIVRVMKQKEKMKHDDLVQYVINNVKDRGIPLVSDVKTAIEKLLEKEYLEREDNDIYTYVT

The next assay deals with Clr4 (S. pombe), O60016. The conditions noted are these: remark: other sources report otherwise.
The target in another assay is T2, Raf1 (S. pombe), O74910.
T2 chain: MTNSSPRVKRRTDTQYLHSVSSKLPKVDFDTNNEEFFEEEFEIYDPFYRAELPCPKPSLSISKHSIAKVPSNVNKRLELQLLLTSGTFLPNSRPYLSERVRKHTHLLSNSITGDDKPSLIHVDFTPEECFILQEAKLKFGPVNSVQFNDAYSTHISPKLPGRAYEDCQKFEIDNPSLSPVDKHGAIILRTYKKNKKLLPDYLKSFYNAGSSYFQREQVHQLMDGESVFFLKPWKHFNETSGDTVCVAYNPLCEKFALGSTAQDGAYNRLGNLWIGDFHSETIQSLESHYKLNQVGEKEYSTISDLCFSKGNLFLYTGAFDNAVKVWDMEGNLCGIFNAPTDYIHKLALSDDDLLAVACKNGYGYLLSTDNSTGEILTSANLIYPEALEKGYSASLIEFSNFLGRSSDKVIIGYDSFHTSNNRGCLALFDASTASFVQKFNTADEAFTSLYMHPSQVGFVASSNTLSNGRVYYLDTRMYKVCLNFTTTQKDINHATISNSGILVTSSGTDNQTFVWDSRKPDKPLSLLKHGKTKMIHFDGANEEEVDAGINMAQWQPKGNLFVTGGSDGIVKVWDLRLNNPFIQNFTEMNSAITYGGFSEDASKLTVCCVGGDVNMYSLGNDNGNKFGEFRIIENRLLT
Conditions: remark: other sources report otherwise.

In another assay the target is T3, Rik1 (S. pombe), Q10426.
T3 chain: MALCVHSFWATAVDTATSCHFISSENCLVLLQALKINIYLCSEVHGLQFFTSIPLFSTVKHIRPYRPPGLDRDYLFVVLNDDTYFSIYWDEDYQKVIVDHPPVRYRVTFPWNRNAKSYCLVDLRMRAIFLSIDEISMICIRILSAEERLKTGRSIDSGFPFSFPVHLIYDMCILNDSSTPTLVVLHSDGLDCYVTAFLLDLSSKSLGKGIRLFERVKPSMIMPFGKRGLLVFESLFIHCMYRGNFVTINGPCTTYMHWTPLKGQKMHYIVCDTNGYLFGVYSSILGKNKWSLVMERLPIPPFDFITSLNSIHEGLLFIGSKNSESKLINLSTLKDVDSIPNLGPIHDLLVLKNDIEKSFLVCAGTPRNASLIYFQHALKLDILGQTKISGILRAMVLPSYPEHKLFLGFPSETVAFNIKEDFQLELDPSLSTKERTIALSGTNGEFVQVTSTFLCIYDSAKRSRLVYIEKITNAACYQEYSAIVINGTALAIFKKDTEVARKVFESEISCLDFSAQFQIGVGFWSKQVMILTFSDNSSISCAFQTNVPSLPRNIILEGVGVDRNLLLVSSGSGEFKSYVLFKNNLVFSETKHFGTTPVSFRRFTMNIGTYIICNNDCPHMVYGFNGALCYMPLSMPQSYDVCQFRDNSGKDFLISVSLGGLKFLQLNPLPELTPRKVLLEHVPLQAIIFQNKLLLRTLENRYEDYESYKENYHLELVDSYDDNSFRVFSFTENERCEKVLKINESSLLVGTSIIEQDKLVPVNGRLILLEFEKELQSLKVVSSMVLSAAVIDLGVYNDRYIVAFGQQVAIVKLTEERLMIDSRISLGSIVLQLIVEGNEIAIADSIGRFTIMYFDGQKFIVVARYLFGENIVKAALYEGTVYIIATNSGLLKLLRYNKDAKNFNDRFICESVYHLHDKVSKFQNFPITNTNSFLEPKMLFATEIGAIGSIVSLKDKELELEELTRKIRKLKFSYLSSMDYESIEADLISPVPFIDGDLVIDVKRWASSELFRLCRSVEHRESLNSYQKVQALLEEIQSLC
Conditions: remark: other sources report otherwise.

The results in this text go back to publication PMC4121317.

Substitutions are numbered along the chain they refer to. Numbers in names are those of the source. Results are given in words; binding and its absence hold for the method and conditions named. Some results given as binding are weak or reduced against the parent protein; the word gives no strength.

B1: Raf2 (protein, UniProt O74560 1-636)
chain: MPPVRAEKKRKTDLIEQVCVTNKAGELVDLEDVLEYGPYSLTGILSSEKDEQEPLFDESIVLGYSIKISPVWTYNLKDVPEKETMSIWIVTPQRRYGILSPSSEYKAIYEQISEKNRLFYLIKTKFKDDMISGTLEDYDNYIEVLKEKLELPSCFQAILLVQKHIRFLLTQMVATSSLHVWSESPFFIRIRSSYEHLILQINKNIYNARQERKKSKLSSNNPSDNNTTMKSSLNQALTLINLPEQPFSISSPTATPQLGVVKRTSPLRFPLNDIWLSGLRIVDPNIESISLWKRIQVSTSPKHQRYISLQEVCSVIAQQLQITNLEALNKLSSHGETLLQIMHTAFTWRGTKLFNDIKHAIGFRSSVQQARSQFRGYCYDYLFMHCNNGEKTSLHLLRTLICMKLDFSNAQLAAKILFHFLLFDIGSGLSGSDYTYEQYINHSAVAFSFTEEIFEKNFVTVLPDFVKLFSISFGYWPAFSFYDELLKLLRNKYPKVYSSTPNLCDQVWLDRTNLFPCNRSTRSTLPYRPTKLLDLASASSCLSKKETDFKQDTGLYSYNLEKVEALKVSPDLQTGIWSCPVQNCLYFAVCDNPYKPSQVIYDHLLGHVDSKFIFKTPSNSVRSFTNKLEHIMYNIN
Consider B1, for which, in the assay with Cul4 (S. pombe), the binding result is given as “binds”.

B2: Raf2-E104A (protein, UniProt O74560 1-636)
chain: B1 chain with E104A
Turning to B2, the binding result with Cul4 (S. pombe) is given as “binds”.

B3: Raf2, O74560 1-636 (protein)
chain: B1 chain
With B3, the binding result is “no binding” with Clr4 (S. pombe), O60016; “no binding” with Raf1 (S. pombe), O74910; “no binding” with Rik1 (S. pombe), Q10426.
